Screen size: about 380,000 compounds; about 25 (0.007%) were called active. Inconclusive means that the source gave no clear call. Such entries were picked first, then a sample of the others. Calls follow the shape of the dose curve; as a rule, active = well fitted activation curve with a large enough effect; inconclusive = small, poorly fitted or top-dose-only effect; inactive = no such curve, though single readings can be large or run the other way. No potency is given beside an inconclusive call; the fits are too rough.
The compounds below were run against Glucagon-like peptide 1 receptor (Homo sapiens) (UniProt P43220) (assay: qHTS of GLP-1 Receptor Agonists). Settings: HEK293 GLP-1R CRE-luciferase, luminescence, 4-6 h, cells express a hypersensitive GLP-1R form; activation: at 45.6 µM (top of the series).
UniProt P43220, sequence (P43220 whole entry, looked up): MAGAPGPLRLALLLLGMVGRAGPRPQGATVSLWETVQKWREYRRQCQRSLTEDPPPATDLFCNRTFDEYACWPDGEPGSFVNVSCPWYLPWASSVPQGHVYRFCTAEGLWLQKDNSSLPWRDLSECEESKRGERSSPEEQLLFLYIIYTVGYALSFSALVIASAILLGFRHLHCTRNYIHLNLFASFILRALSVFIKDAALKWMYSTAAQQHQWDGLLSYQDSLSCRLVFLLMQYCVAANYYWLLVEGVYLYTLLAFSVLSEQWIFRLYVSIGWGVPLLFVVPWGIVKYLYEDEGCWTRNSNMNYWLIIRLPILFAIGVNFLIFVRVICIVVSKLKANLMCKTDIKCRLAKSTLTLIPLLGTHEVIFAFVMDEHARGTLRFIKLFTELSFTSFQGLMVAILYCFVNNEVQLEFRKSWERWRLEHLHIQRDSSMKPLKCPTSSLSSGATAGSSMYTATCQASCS
Source text: The overall goal of this project was to develop a novel assay for discovering small molecule ligands for class B1 G protein-coupled receptors (GPCRs). Very few agonists (or inverse agonists) with generally weak activity for this entire group of physiologically important receptors are known to date. To establish proof-of-principle that this critical bottleneck can be overcome with a suitable screening approach, our studies focused on the class B1 receptor for glucagon-like peptide-1 (GLP-1R), a potential therapeutic target for diabetes and neurodegenerative disease.
The assay was developed in a "mix and measure" format using a cell-based functional readout. Toward this goal, stably transfected HEK293 cell clones were established that co-express (i) a cAMP-responsive luciferase reporter gene, and (ii) GLP-1Rs that upon ligand interaction either stimulate (agonists) or inhibit (inverse agonists) luciferase activity. In different cell lines to be used for screening, expressed GLP-1Rs are specifically optimized for high sensitivity detection of either weak agonists (hypersensitive receptor) or inverse agonists (constitutively active receptor mutant). In addition, control cell lines were developed that express either the cAMP-responsive reporter gene without recombinant GLP-1Rs (enabling initial exclusion of GLP-1R independent effects of candidate probes), or the reporter gene together with wild type GLP-1Rs (for confirmation of probe activity at this receptor), or the reporter gene in combination with the constitutively active orphan receptor GPR119 (enabling initial exclusion of GLP-1R independent inhibitory effects of candidate inverse agonists).
To that end, this assay was optimized for 1536-well format and screened against the MLSMR.
NIH Molecular Libraries Probe Production Network [MLPCN]
NIH Chemical Genomics Center [NCGC]
PI Name: Martin Beinborn, Tufts Medical Center
In a white solid 1536-well plate, 6 uL of cells are dispensed in DMEM without phenol red, 10% Nu serum, and 1% pen-strep medium. The plates are then incubated for 12 hours at 37 deg C at 5% CO2 before 23 nL of compounds are added. After a 4-6 hr incubation at37 deg C and 5% CO2, 3 uL of detection reagent are added and after a 12 min incubation at RT, a luminescent read is obtained on the ViewLux.
For activation in this document: % of control where 0% means no effect.
Potency is read from the fitted curve at half-maximal effect; tags tell the direction and shape of the fitted curve.

Structure (SMILES) | activation | Potency
CC(C)N1C(=O)CC2(CC[N+](C)(CCOC(=O)C(O)(c3ccccc3)c3ccccc3)CC2)C1=O (stereo not given) | inactive: -26.3% | –
O=c1c2ccccc2[nH]c(=S)n1-c1ccc(Br)cc1 | inactive: 4.15% | –
CCNc1nc(NC(C)(C)C)nc(SC)n1 | – | inconclusive [activator, partial curve, poor fit]
CC(C(=O)O)c1ccc(-c2ccccc2)c(F)c1 (stereo not given) | – | inconclusive [activator, single point]
CCc1ccc(CNCCc2ccccc2F)cc1 | inconclusive: 31% [activator] | –
COc1ccc(CCNc2oc(-c3ccc(OC)c(OC)c3)nc2P(=O)(OC)OC)cc1OC | – | inconclusive [activator, partial curve, poor fit]
COc1cccc(C2(O)CCN(Cc3ccncc3)CC2)c1 | inactive: 1.33% | –
O=C(O)C(Cl)(Cl)Cl | – | inconclusive [activator, single point]
COc1ccc(C(=O)C(Cc2ccccc2)N(C)C)cc1 (stereo not given) | inactive: 20.9% | –
CC(CCc1ccccc1)NC(C)C(O)c1ccc(O)cc1 (stereo not given) | inconclusive: 36.4% [activator] | –
CC(=O)OCC12CC(OC(=O)CC(C)C)C(C)=CC1OC1C(O)C(OC(C)=O)C2(C)C12CO2 (stereo not given) | inactive: -6.57% | –
O=c1[nH]cnc2nc(-c3ccc(N(CCCl)CCCl)cc3)[nH]c12 | – | inconclusive [activator, full curve]
COc1ccc(-n2c(-c3ccc(C)cc3)nc3ccccc3c2=O)cc1 | – | inconclusive [activator, single point]
c1ccc2nc(N3CCNCC3)ccc2c1 | – | inconclusive [activator, single point]
CCOP(=O)(OCC)c1nc(-c2cccc3ccccc23)oc1N1CCCCC1 | – | inconclusive [activator, partial curve, poor fit]
Cc1ccc(S(=O)(=O)N(C)CCCC(=O)N2CCN(c3ccccn3)CC2)cc1 | – | inconclusive [activator, partial curve, poor fit]
CCCCn1c(=O)c(C(=O)Nc2cccc(C)c2)c(O)c2ccccc21 | inactive: -1.25% | –
C[C@]12CCC(=O)C[C@@H]1CC[C@@H]1[C@@H]2CC[C@]2(C)[C@@H](O)CC[C@@H]12 | – | inconclusive [activator, single point]
CCC1C(C)=NN=C(c2ccc(OC)c(OC)c2)c2cc(OC)c(OC)cc21 (stereo not given) | – | inconclusive [activator, partial curve, poor fit]
CC(=NCc1ccc2c(c1)OCO2)c1c(O)[nH]c(=O)[nH]c1=O | – | inconclusive [activator, partial curve, poor fit]
O=c1[nH]c(=S)n(C2CC2)c(O)c1/C=N/Nc1ccccc1 | inactive: 1.96% | –
C[C@H](NC(=O)N1C[C@H]2C[C@@H](C1)c1cccc(=O)n1C2)C(=O)Nc1cccc(F)c1 | – | inconclusive [activator, partial curve, poor fit]
COC(=O)C1=C(c2cccc(C#N)c2)C[C@@H]2CC[C@H]1N2C(=O)NCc1cc(C)oc1C(F)(F)F | inactive: 4.54% | –

Structure (SMILES) | activation | Potency
COc1ccc(-c2nnn(CC(=O)OC3CCCCC3)n2)cc1OC | – | inconclusive [activator, single point]
CCCCCc1cc(O)c2c(c1)OC(C)(C)C1CC=C(C)CC21 (stereo not given) | inactive: -4.94% | –
BrCC1C[n+]2c(SCc3ccccc3)nc3sc4c(c3c2O1)CCCC4 (stereo not given) | – | inconclusive [activator, single point]
CN(CC1COc2ccccc2O1)c1nc(-c2cccnc2)nc2ccccc12 (stereo not given) | – | inconclusive [activator, single point]
CCCCC(CC)COC(=O)c1ccccc1C(=O)O (stereo not given) | – | inconclusive [activator, partial curve, poor fit]
O=C(CCCOc1ccc(Cl)cc1Cl)N1CCC2(CC1)OCCO2 | – | inconclusive [activator, partial curve, poor fit]
CN(C)CCO | – | inconclusive [activator, full curve, poor fit]
CN1CCN(Cc2nnc3n2-c2ccc(Cl)cc2C(c2ccccc2)=NC3)CC1 | inactive: 5.35% | –
CC(C)=CCOc1c2occc2cc2ccc(=O)oc12 | – | inconclusive [activator, partial curve, poor fit]
COc1ccc(-c2nnc3sc(C4CCCCC4)nn23)cc1OC | – | inconclusive [activator, full curve, poor fit]
CC(Cc1ccc(O)cc1)NCC(O)c1cc(O)cc(O)c1 (stereo not given) | inconclusive: 59.9% [activator] | –
C=CCn1c(O)c(C(CC)=NCc2cc(OC)cc(OC)c2)c(=O)[nH]c1=O | – | inconclusive [activator, partial curve, poor fit]
COc1nc(NC2CCCCC2)nc(NC(C)(C)C)n1 | – | inconclusive [activator, single point]
CC(C)(C)NC[C@H](O)c1ccc(O)cc1Cl | inconclusive: 55% [activator] | –
CC(=O)N1CC(=O)Nc2ccc(Cl)cc2C1c1ccccc1 (stereo not given) | inactive: 9.4% | –
O=C1NC(=O)N(CCc2ccc(F)cc2)C(=O)/C1=C\C=C\c1ccccc1 | inactive: 0.384% | –
CC(C)CC(N(C)C)C1(c2ccc(Cl)cc2)CCC1 (stereo not given) | – | inconclusive [activator, single point]
Oc1ccc(C[C@H]2NCCc3cc(O)c(O)cc32)cc1O | – | inconclusive [activator, partial curve]
Fc1ccc2c(c1)nnn2C1CCN(Cc2nnnn2C2CCCCC2)CC1 | inactive: 3.84% | –
COc1ccc(-c2cc(NC=O)c3ncc(-c4cc(OC)c(OC)c(OC)c4)n3c2)c(OC)c1 | – | inconclusive [activator, full curve, poor fit]
Cc1cccc(OCCNc2ncccc2[N+](=O)[O-])c1 | – | inconclusive [activator, partial curve, poor fit]
O=C(N/N=C/c1c(O)n(C2CCCCC2)c(=S)[nH]c1=O)c1ccccc1O | inactive: 5.23% | –
